# From the supplement of paper PMC3334620
# In all, about 33,000 sequences were measured (“E-score (-0.5 to 0.5)”: median about -0.054, highest 2% from about 0.39 on). Some of the results follow.
# Molecular target: Ylr278c (UniProt Q05854)
# Experiment: PBM E-score (8-mer binding enrichment) (E-score (-0.5 to 0.5)); higher = stronger / more preferred TF binding; most listed sequences are background and not binding sites
# Settings: protein concentration: 200 nM; construct: GST-DNA-binding domain
# Outline: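 Yeast transcription factors, full-length or as DNA-binding domains, were expressed with a GST tag using PURExpress in vitro transcription/translation. At about 100-200 nM they were applied to universal all-10-mer Agilent arrays, double-stranded by primer extension on fresh or once-stripped slides. Fluorescent anti-GST detected bound protein, and masliner normalised the scans. E-scores for ungapped eight-base words, pooled with reverse complements, came from the Universal PBM Analysis Suite.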
row,Sequence,PBM E-score
1,CGTCTCTC,-0.00934
2,ACCGGTTG,0.221
3,ACTCTTCA,-0.191
4,AACTCTTG,-0.319
5,AGTCTGGG,-0.32
6,AACACGGC,0.0459
7,AGCAATGC,0.072
8,AGATGGGA,-0.055
9,AGTCGATA,-0.186
10,AGACAGAT,-0.0803
11,ATAAGGCC,0.0877
12,ATTCCTAA,0.0152
13,CTCTGCAA,-0.0683
14,TGTCATAA,-0.333
15,GCGACTCC,0.0827
16,GATCAAAA,-0.0359
17,AAACGAAG,-0.055
18,CGACGTTC,-0.0869
19,GTGCGCCA,-0.0886
20,GTAAAAAA,0.0208
21,TGGCTAAA,-0.0681
22,AGTTCGAG,-0.156
23,AAATTCAC,0.00682
24,GATAAATA,0.092
25,GGCTAAAC,0.108

row,Sequence,PBM E-score
1,TGGTTGAA,-0.178
2,CACCGAAG,0.167
3,ATGATCCC,0.183
4,AACGTCAC,-0.187
5,GGGCGCAA,-0.0471
6,GGATTATA,0.154
7,CGCAAGGC,0.0765
8,ATCCTACA,-0.167
9,CGGAGCAC,0.391
10,ATCATGCG,0.0437
11,ACGGGGAG,0.07
12,CGTAACAG,0.0692
13,ATTCAAAG,-0.141
14,CGCGGGTC,0.224
15,CAACGACA,-0.0546
16,CCTTAGTA,-0.0386
17,AACTCCGC,0.49
18,CAGACCTA,-0.328
19,CTCGAAAA,-0.153
20,CAAAAACG,0.052
21,CGGGGGCA,-0.00606
22,CAACCAAG,-0.174
23,AGTAACAG,-0.0634
24,GACGAATC,-0.0908
25,CGCTCATA,-0.161

row,Sequence,PBM E-score
1,AGATACCC,0.055
2,AAGCCCGG,0.416
3,GAACGATA,-0.091
4,ACATGAGC,-0.145
5,CAGACCCC,-0.0599
6,ACCTCTGG,-0.135
7,AAACCCTA,-0.111
8,TAGAGAGA,-0.276
9,CCCCAGGG,-0.211
10,ACAAATCA,-0.161
11,AGAGATGG,-0.036
12,GTGATAAC,0.0272
13,GGATCACA,0.118
14,CACCGCCA,0.0608
15,GCGTCGCC,0.115
16,CAATTGCC,0.00964
17,ATGCCCAC,-0.117
18,CGGTTCTA,0.15
19,CTCCAACC,0.0151
20,AAATTTAC,0.0141
21,GAAAAACC,0.25
22,CTCGGTGC,0.0178
23,CGCACTGC,0.107
24,ACGCAGGG,-0.0896
25,AAGCGGGG,0.112

row,Sequence,PBM E-score
1,CGTTTAAG,-0.0941
2,AGCTCAGC,-0.282
3,AACCATCG,0.0694
4,CACAGCTG,-0.106
5,CTCACGGC,0.138
6,ATTGTACC,-0.105
7,GGTACCGA,0.135
8,TACGCCGA,0.293
9,AAATAGGG,-0.0513
10,GGCACTTA,-0.239
11,CAGTTAGG,-0.137
12,AGTCTTAG,-0.244
13,ACCTTGAG,-0.131
14,GGGTAAAC,0.0949
15,GAACAGTA,-0.0875
16,ACCAGGGT,-0.206
17,CAGAATGG,-0.0518
18,CCGGCCCC,0.307
19,GTTATACA,-0.117
20,AACTGTAC,-0.195
21,GTGAATCA,-0.104
22,AAATGTGT,-0.0971
23,AGACGTCT,-0.209
24,AGCGAATA,-0.0504
25,CTGATGTA,-0.102

row,Sequence,PBM E-score
1,TCAATGCA,-0.28
2,CGACAGGC,-0.168
3,ACGGGTAG,-0.155
4,ACCTCCAG,-0.111
5,AAAAGCGT,-0.0372
6,AAGCTATC,-0.06
7,ATGTACGA,-0.0123
8,CAGGAACG,-0.153
9,GTAATTCA,-0.0661
10,GCCATGAC,-0.144
11,CTGAGAGA,-0.298
12,ATCAGTGC,-0.235
13,GTAACCGA,0.0372
14,ATGAAGTG,-0.0885
15,CCACAGCA,-0.109
16,ACCGCAAT,0.16
17,CATCTTGC,-0.0382
18,AACACGCG,-0.142
19,AGCGTAAA,-0.00156
20,CAAAAATC,-0.1
21,ATGCTAAA,-0.173
22,GGTGCGTA,-0.0366
23,AAAATTTG,-0.22
24,GGAGCACA,0.123
25,AGCGCTCC,0.0243

row,Sequence,PBM E-score
1,ATGGTGTA,-0.255
2,GCGGATCA,0.212
3,TCTCACCA,0.0252
4,CATATGCC,0.0552
5,ATTTGCCA,-0.237
6,AGATAACT,-0.0472
7,CGATGGGA,0.173
8,CCAGGGAA,-0.274
9,GTGTCACA,0.0634
10,ACGTTACC,-0.066
11,TGGGTTAA,-0.21
12,ACACCTGG,-0.243
13,GAAGGTCC,0.198
14,GGTCAATA,-0.137
15,ATGGTTCG,0.0265
16,GCAGCAGC,-0.198
17,ACGTACAG,-0.125
18,ACGACGCG,0.0212
19,CACTGTGG,-0.303
20,GCACATCA,-0.0109
21,TAGACTAA,-0.227
22,AGGAGATG,-0.0733
23,CGTTGATA,0.121
24,GGGCCAAA,-0.00886
25,GTTCCAGA,-0.266

row,Sequence,PBM E-score
1,ATTCAATC,0.0442
2,GAGTTGGC,0.046
3,CCGGAAGA,0.421
4,AGTAAGGC,0.0309
5,AAACCATC,0.18
6,AACCGACG,0.198
7,CCCCAATA,-0.116
8,AGTTCTAA,-0.0282
9,ACCACGCA,-0.29
10,CATACGCC,-0.0581
11,AGTGACTC,-0.202
12,CTAGTGTC,-0.0814
13,AGGACGTG,-0.147
14,GTTCTCGA,-0.251
15,AATTAATT,-0.056
16,GTTCGATA,0.032
17,TAAGTCGA,-0.243
18,ATCCGGGC,0.406
19,AATCCCCG,0.398
20,AGGCCCCC,-0.0135
21,CTGGATAA,0.00624
22,GCTTTTTA,-0.0143
23,ACTTATGA,-0.124
24,ACGTGAGA,-0.147
25,AAAGGTCC,0.00747

row,Sequence,PBM E-score
1,AGAGAGTG,-0.224
2,ACCTTGGA,-0.0698
3,CTCGCGCC,0.149
4,AGCGACTA,-0.27
5,CAAGGCTA,0.0372
6,ACATCCTA,-0.281
7,ACTCTTTA,-0.29
8,AATGCGTA,-0.0855
9,GTGCGTGA,0.0427
10,AAAAGACC,-0.0155
11,CATGCAAC,-0.00565
12,CCAGCGAC,-0.26
13,CTAATAAC,-0.0371
14,AGTATAGG,0.00653
15,CTTGCATC,-0.0743
16,ATGCCGCC,0.325
17,CTTGCGAA,0.166
18,ACTGCGTC,-0.239
19,ATCGTCGG,0.248
20,ACTCGTTC,-0.17
21,ACGGAAAT,0.378
22,GAACGCAA,-0.0321
23,AGGTTAGG,-0.0362
24,AACAAAAA,-0.0965
25,ACCCAGGT,-0.143

row,Sequence,PBM E-score
1,TAGCACCA,-0.146
2,GCGAGTCA,-0.0556
3,CGCAACTC,0.168
4,AAGGGCCC,-0.0976
5,ATCACGCG,0.17
6,AAAAGGTG,-0.196
7,ATACTAGG,0.0458
8,CACAAGCA,-0.275
9,GGGCAACA,0.0452
10,GATGATAA,-0.0127
11,ATTCAAGG,-0.282
12,AACTGAGA,-0.257
13,CCCAATCG,0.00259
14,ACCAGCGT,-0.299
15,AGCGTACA,-0.326
16,ATCATGGG,-0.258
17,CCCCCGAG,0.076
18,AGGCCCGG,0.22
19,AGAAGTTA,-0.278
